The other results are listed elsewhere or left out. Sequences were assembled here from the parent chain. Inactive controls read about 0.05.
B1: TEV protease; numbered along this chain (parent)
chain: MGESLFKGPRDYNPISSSICHLTNESDGHTTSLYGIGFGPFIITNKHLFRRNNGTLVVQSLHGVFKVKDTTTLQQHLVDGRDMIIIRMPKDFPPFPQKLKFREPQREERICLVTTNFQTKSMSSMVSDTSCTFPSGDGIFWKHWIQTKDGQCGSPLVSTRDGFIVGIHSASNFTNTNNYFTSVPKNFMELLTNQEAQQWVSGWRLNADSVLWGGHKVFMVKPEEPFQPVKEATQL

Variants of: B1
Experiment: raw area under fraction-flipped curve 0-4 h after induction (AUC4h, not background-subtracted), DNA-recorder readout of cleavage of the substrate (dimensionless); higher = more cleavage of the substrate by the protease variant
Details: temperature: 34 °C; time window: 0-4 h after rhamnose induction
Method: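 In vivo DNA recorder in E. coli TOP10(DE3) ΔrhaA at 34 °C. Each TEVp single-site mutant (parent TEVp 0) is paired with a single-site variant of the 7-mer TEVs (canonical ENLYFQ|S). The substrate sits between flexible linkers in a Bxb1-sfGFP-TEVs-SsrA fusion, so cleavage stabilises Bxb1 and speeds flipping of a recombination array, read by NGS. The value is the raw area under the fraction-flipped curve over 0-4 h after rhamnose induction (AUC4h), with ≥20 reads per time point. It is not background-subtracted; inactive controls average about 0.047.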
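Also: Bxb1 expression induced with 0.2% (w/v) L-rhamnose at OD600 near 0.5, cultures sampled hourly, flipped fraction per protease–substrate barcode pair counted by paired-end Illumina sequencing.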

Variant | area with substrate ENLYFCS | area with substrate ENLYFFS | area with substrate ENLYFGS | area with substrate ENLYFHS | area with substrate ENLYFIS | area with substrate ENLYFKS | area with substrate ENLYFNS | area with substrate ENLYFRS | area with substrate ENLYFTS | area with substrate ENLYFWS | area with substrate ENLYFDS | area with substrate ENLYFPS | area with substrate ENLYFSS | area with substrate ENLYFES | area with substrate ENLYFMS | area with substrate ENLYFVS | area with substrate ENLYFYS | area with substrate ENLYFLS
W144T | 0.0585 | 0.0693 | 0.0463 | 0.0581 | 0.0763 | 0.0566 | 0.0727 | 0.058 | 0.0601 | 0.0924 | – | – | – | – | – | – | – | –
T55I | 0.042 | 0.0816 | – | 0.0546 | 0.0491 | 0.0595 | 0.0736 | 0.056 | 0.0549 | 0.0576 | 0.0593 | 0.0566 | 0.0612 | – | – | – | – | –
L205N | 0.0074 | – | – | – | 0.0614 | 0.0592 | – | 0.0497 | 0.0554 | 0.0747 | – | 0.0579 | – | 0.0539 | 0.0748 | 0.056 | 0.0639 | –
K66R | 0.0575 | 0.0637 | 0.0597 | – | 0.0551 | 0.0471 | 0.0685 | 0.0583 | 0.0664 | 0.0429 | 0.0616 | 0.0554 | 0.0672 | 0.0716 | 0.0823 | – | – | 0.0507
T159Y | 0.0721 | 0.0462 | 0.0865 | 0.0651 | 0.0646 | – | – | 0.0616 | – | 0.0562 | 0.0567 | 0.0589 | 0.063 | 0.0721 | 0.0652 | – | 0.0795 | 0.0534
K216L | 0.054 | – | – | – | 0.0665 | – | 0.0875 | 0.0848 | 0.0584 | – | – | 0.0616 | – | – | 0.0767 | 0.059 | – | 0.0665
Q118N | 0.0536 | 0.069 | 0.0603 | – | 0.0638 | – | – | 0.0662 | – | 0.0516 | 0.0442 | – | 0.067 | 0.0526 | 0.0453 | 0.0588 | 0.0521 | 0.0618
L48H | 0.0574 | 0.0665 | 0.057 | 0.0527 | 0.0551 | 0.061 | 0.0611 | – | 0.0582 | 0.0545 | – | 0.0482 | 0.0588 | 0.0523 | 0.0641 | 0.0187 | – | 0.0416
V165D | 0.0545 | 0.0649 | – | 0.0551 | 0.0536 | – | – | 0.0496 | – | – | – | 0.0629 | 0.0324 | 0.0471 | – | – | 0.0377 | 0.0589
P155F | 0.0417 | 0.0657 | – | 0.048 | 0.0474 | 0.0709 | – | 0.0376 | 0.0611 | 0.0482 | 0.044 | 0.0558 | 0.0517 | 0.0638 | 0.0513 | 0.0523 | – | 0.0621
M122Y | 0.0606 | 0.0726 | – | 0.0595 | 0.0527 | 0.0581 | – | 0.07 | 0.0585 | 0.0574 | – | 0.0653 | 0.0516 | 0.0612 | 0.0674 | 0.0701 | 0.0642 | 0.0767
N177V | 0.0697 | 0.0627 | 0.0587 | – | 0.049 | – | 0.0699 | 0.0607 | – | 0.0658 | 0.0519 | 0.0609 | 0.0599 | – | 0.0683 | – | 0.0722 | –
T181G | 0.0429 | 0.0649 | – | 0.0571 | 0.0496 | – | 0.0775 | 0.058 | – | 0.0565 | 0.0434 | 0.0573 | 0.0773 | 0.0683 | 0.0426 | – | 0.0386 | –
R109P | 0.0665 | 0.0663 | – | 0.0595 | 0.0559 | – | 0.0655 | – | 0.0674 | 0.0626 | 0.0567 | 0.0564 | 0.0649 | 0.059 | 0.0833 | 0.05 | 0.0356 | –
